# Measured values reported in PMC6919601, “Identification of Plasmodium dipeptidyl aminopeptidase allosteric inhibitors by high throughput screening” (PLoS ONE, 2019).
# Out of some 110,000 compounds screened, about 230 (0.21%) showed an effect of 50% or more. The list shows a part of the results.
# Target: DPAP1 (Plasmodium falciparum, UniProt Q8IIJ9)
# Test: primary screen, percent inhibition; read by cleavage of a fluorogenic dipeptide substrate; higher = more effect of the substance
# Set-up: species or system P. falciparum D10 trophozoite lysates; single well
# 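Further: 30 min substrate incubation versus DMSO and 10 µM JCP410 controls.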
# DPAP1, sequence (Q8IIJ9 whole entry, looked up): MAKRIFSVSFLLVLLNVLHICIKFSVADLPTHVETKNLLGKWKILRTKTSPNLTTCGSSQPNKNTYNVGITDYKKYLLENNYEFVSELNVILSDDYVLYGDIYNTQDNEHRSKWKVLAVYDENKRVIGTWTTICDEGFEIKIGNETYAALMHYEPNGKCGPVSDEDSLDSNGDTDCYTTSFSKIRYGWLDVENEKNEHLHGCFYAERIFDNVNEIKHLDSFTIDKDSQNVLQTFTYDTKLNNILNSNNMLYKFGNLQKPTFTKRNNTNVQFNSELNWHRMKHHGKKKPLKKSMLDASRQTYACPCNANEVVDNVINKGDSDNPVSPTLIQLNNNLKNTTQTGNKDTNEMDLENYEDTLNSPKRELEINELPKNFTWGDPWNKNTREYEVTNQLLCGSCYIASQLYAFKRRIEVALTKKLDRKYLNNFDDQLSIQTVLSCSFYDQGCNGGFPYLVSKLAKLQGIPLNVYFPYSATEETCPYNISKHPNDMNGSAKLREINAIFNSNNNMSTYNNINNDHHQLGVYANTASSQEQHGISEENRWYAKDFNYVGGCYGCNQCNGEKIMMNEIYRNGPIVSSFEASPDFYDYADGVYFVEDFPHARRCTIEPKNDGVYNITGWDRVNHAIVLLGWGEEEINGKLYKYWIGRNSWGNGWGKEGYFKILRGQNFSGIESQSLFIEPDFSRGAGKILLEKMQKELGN
row,Compound,% Inhibition @ 10 uM [%]
1,O=C(NCc1ccccn1)C1CC1c1ccccc1 (stereo not drawn),-1.04
2,Cc1nc2c(-c3cccc4ccccc34)c(C)nn2c(O)c1Cl,0.789
3,C=CCn1c(SCC(=O)N2CCCc3ccccc32)nc2sc(C)cc2c1=O,5.54
4,Cc1ccccc1-c1nc(CSCC(=O)NCc2cccs2)c(C)o1,-4.71
5,COc1ccccc1-c1nnc(C2CCN(S(=O)(=O)c3c(F)c(F)c(F)c(F)c3F)CC2)o1,11.3
6,C(=C\c1nc2sc(/C=C/c3ccccc3)nc2s1)/c1ccccc1,-0.268
7,CCn1c(C(=O)O)c(CNCCc2cc(OC)ccc2OC)c2ccc(C)cc21,6.66
8,CCOC(=O)N1CCN(c2nc(C)cc(C(F)(F)F)n2)CC1,-9.05
9,O=C(NCc1cccc(CNC(=O)c2cccc(F)c2)c1)c1cccc(F)c1,0.389
10,COc1cc(C(CC(=O)NC(C)C)N2Cc3ccccc3C2=O)cc(OC)c1OC (stereo not drawn),-3.29
11,CC1=C(C)CC(CN2C(=O)CCCC2=O)CC1 (stereo not drawn),-4.31
12,CCCCOc1ccc(OCCNC(=O)c2ccco2)cc1,0.503
13,CCC(Sc1nc2c(cc1C#N)CCCCC2)C(=O)Nc1cc(C)on1 (stereo not drawn),0.275
14,CNC(=O)c1ccc(CNS(=O)(=O)c2ccc(C)cc2)cc1,0.718
15,CCOC(=O)c1c2c(n3ccccc13)C(=O)c1ccccc1C2=O,12
16,CC(C)(C)c1ccc(C(=O)NC2(C(F)(F)F)NC(=O)N(Cc3ccccc3)C2=O)cc1 (stereo not drawn),1.91
17,Cc1ccc(S(=O)(=O)N(C)Cc2nc(-c3cccc(C)c3)no2)cc1,0.907
18,O=C(NCC1COc2ccccc2O1)c1ccc(Cl)cc1 (stereo not drawn),-1.38
19,CCOc1ccc2nc(NC(=O)Cn3cc(S(=O)(=O)NC)c(S(=O)(=O)NC)c3)sc2c1,5.36
20,O=C1c2ccccc2C(=O)N1CCCON1C(=O)c2ccccc2C1=O,-0.941
21,Cc1cc(-c2ccc(S(=O)(=O)NCc3ccc(F)cc3)cc2)on1,5.87
22,CC1(C)CC(=O)C2=C(C1)c1c(ccc3ccccc13)NC2c1cc2c(cc1Br)OCO2 (stereo not drawn),1.29
23,CCCN(CCO)Cc1cccc(Cl)c1,-6
24,Cc1ccc(C2NC(=S)NC(c3ccc(C)cc3)C23C(=O)NC(=O)NC3=O)cc1 (stereo not drawn),-1.29
25,COCCNC(=O)c1ccc2c(c1)nc(C)n2-c1cccc(C)c1,3.04

row,Compound,% Inhibition @ 10 uM [%]
1,N#CCC(=O)NCC1OCCc2ccccc21 (stereo not drawn),-0.736
2,COc1cccc(C(=O)N2CCN(c3ncccn3)CC2)c1,3.94
3,CC1=[N+]([O-])C2(CCCCC2)[N+]([O-])=C1c1ccccc1,1.63
4,OCC1CCCCN1Cc1ccc(F)c(Br)c1 (stereo not drawn),-5.11
5,CCN(CC)C(=O)C1CCCN(Cc2c(Cl)cccc2Cl)C1 (stereo not drawn),-1.41
6,Cc1ccc(S(=O)(=O)N(CC(=O)N(C)C)c2ccc(Br)cc2)cc1,0.793
7,Cc1c(Cl)cccc1-n1cnc(=O)c2ccccc21,-3.33
8,Cc1cccc(C)c1NC(=O)CN1CCCCC1,1.7
9,COc1ccc(-c2noc(CNC(=O)C(c3ccccc3)c3ccccc3)n2)cc1,-1.22
10,COc1cc(CN2COc3cc(C)c4c(oc(=O)c5ccccc54)c3C2)cc(OC)c1OC,4.13
11,CCC[C@H](NC(=O)C1(NC(=O)c2ccc(OC(F)(F)F)cc2)CCCCC1)C(=O)c1nnc(CC)o1,-4.72
12,O=C(NCc1cccnc1)c1ccccc1Cl,-0.872
13,COc1cc(C2C(C#N)=C(N)OC3=C2C(=O)CC(C)(C)C3)ccc1OCc1ccccc1Cl (stereo not drawn),5.58
14,CCN1CCCC1CNC(=O)C1c2ccccc2C(=O)N(CCOC)C1c1ccc(F)cc1 (stereo not drawn),1.96
15,CCOC(=O)CC1(c2ccc(F)cc2)C(=O)c2ccccc2C1=O,-6.06
16,O=C(O)c1ccc(S(=O)(=O)N2CCCCCCC2)cc1,-4.07
17,CCOC(=O)C1=C(c2ccccc2)Nc2nnnn2C1c1ccc(OC)cc1 (stereo not drawn),2.17
18,CCOc1ccc2nc(N3CCC(C(=O)NCCCN4CCc5ccccc5C4)CC3)sc2c1,1.8
19,Cc1ccc(OCCSc2nc(-c3ccccc3)nc3cc(=O)[nH]n23)cc1Cl,10.2
20,CCOc1cc(/C=C(\C#N)c2nn(-c3ccccc3)c(NC(C)=O)c2C#N)ccc1OC,8.01
21,COc1ccc(OC)c(NS(=O)(=O)c2ccccc2)c1,0.983
22,Cc1c(Cl)cccc1NC(=O)c1cccc(N2C(=O)C3C4C=CC(C4)C3C2=O)c1 (stereo not drawn),-1.27
23,Cc1nc2sc(C(N)=O)c(N)c2c(C)c1CC(=O)c1ccccc1,5.39
24,CCCCN1C(=O)N(C)C2NC(=S)NC21 (stereo not drawn),-0.339
25,CC(C)(C)CC(=O)N1CCN(c2ccc(Cl)cc2)CC1,-7.34

row,Compound,% Inhibition @ 10 uM [%]
1,COc1cc(CCC(=O)Nc2cc(C)[nH]n2)cc(OC)c1OC,3.47
2,COc1cccc(OC)c1C(=O)NCc1ccc(C)cc1,-1.54
3,Clc1cccc(CSc2ncc3ccccn23)c1,2.9
4,Cc1ccc(NC(=O)CSCC(=O)NC2CCCCC2)cc1,-2.19
5,COc1ccccc1C(=O)N1CCN(C2=NS(=O)(=O)c3ccccc32)CC1,-1.4
6,COc1cc2nc(NCCCN3CCCCC3)n3nc(-c4ccccc4)nc3c2cc1OC,-2.42
7,Cc1ccc(-c2nc(CS(=O)(=O)CC(=O)NCCCc3ccccc3)c(C)o2)cc1,-0.138
8,COc1cccc(-c2cn3c4c(=O)n(C)c(=O)n(C)c4nc3n2-c2ccc3c(c2)OCCO3)c1,-11.1
9,CCOC(=O)N1CCN(Cc2nc3c(c(=O)n(C)c(=O)n3C)n2CCCc2ccccc2)CC1,2
10,Cc1noc(C)c1S(=O)(=O)N1CCCC(C(=O)N2CCN(c3ccccn3)CC2)C1 (stereo not drawn),-1.03
11,O=C(Nc1cccc(-c2cn3ccsc3n2)c1)c1ccccc1Cl,2.84
12,CCC[C@H](NC(=O)C(CCSc1ccccc1)CCSc1ccccc1)C(=O)c1nc2ccccc2o1,-10.7
13,C=CCNC(=O)/C(C#N)=C/c1c(Oc2ccccc2Cl)nc2ccccn2c1=O,-0.828
14,Cc1ccc(C)c(-c2csc(N)n2)c1,4.26
15,CC(C(=O)NCCN1CCOCC1)n1c2ccccc2c2cnn(C)c(=O)c21 (stereo not drawn),-3.79
16,Fc1ccccc1-c1nn2c(Cc3ccccc3)nnc2s1,7.97
17,COc1ccc(OCC(=O)Nc2ccc(S(=O)(=O)Nc3cc(C)on3)cc2)cc1,1.52
18,COc1ccc(Cc2nc3c4cnn(-c5c(F)c(F)cc(F)c5F)c4ncn3n2)cc1OC,2.19
19,CC(C)CC(=O)Nc1ccc(-c2cn3ccsc3n2)cc1,1.37
20,COc1ccc(CNC(=O)C2=CCN(S(=O)(=O)c3ccc(Br)cc3)CC2)cc1,0.277
21,COc1cc(C(=O)Nc2nn3c(CC(C)C)nnc3s2)cc(OC)c1OC,-2.79
22,CC(C)(C)Nc1nc(Cl)nc(N2CCCCC2)n1,-2.51
23,CN(C)CCCN(C(=O)c1nc2ccccc2s1)c1nc2ccc(F)cc2s1,2.25
24,COc1ccc(CNC(=O)CCC(=O)N2Cc3ccccc3Oc3ncccc32)cc1,-1.52
25,CCCc1nc(-c2ccc(-c3ccc(F)cc3)cc2)no1,-0.771

row,Compound,% Inhibition @ 10 uM [%]
1,CCCCN(C)S(=O)(=O)c1ccc(C(=O)Nc2sc3c(c2C(=O)OC)CCN(C)C3)cc1,2.04
2,CCCN(CCC)S(=O)(=O)c1ccc(C(=O)OCC(=O)c2ccccc2)cc1,-4.59
3,OCC(CO)C(c1ccccc1)C(CO)CO,3
4,CCOc1ccc(C2C3=C(CC(C)(C)CC3=O)N(CC(=O)O)C3=C2C(=O)CC(C)(C)C3)cc1OCC,-5.67
5,Cn1cccc1C(=O)NS(=O)(=O)c1ccccc1Cl,-1.93
6,Cc1cc(C)nc(SCC(=O)Nc2ccc(S(=O)(=O)Nc3onc(C)c3C)cc2)n1,-1.52
7,COc1cc(CNCCO)ccc1OCc1ccc(Cl)cc1Cl,-0.0619
8,CCOC(=O)N1CCN(C(=O)Cn2nc(-c3ccc(Cl)cc3)ccc2=O)CC1,3.24
9,CCc1ccc(C2C3=C(O)CCCC3=Nc3nn(-c4ccccc4)c(O)c32)cc1 (stereo not drawn),2.1
10,CC1CC(=O)C2=C(C1)OC(N)=C(C#N)C2c1cccc(C(F)(F)F)c1 (stereo not drawn),-1.38
11,Cc1cc(NS(=O)(=O)c2ccc(NC(=O)c3ccc(Cl)c(Cl)c3)cc2)no1,4.39
12,O=C(Nc1ccccc1C(=O)O)c1cccc(N2C(=O)c3ccccc3C2=O)c1,-3.24
13,CCN1CCN(Cc2csc3c2CCCC3)CC1,1.77
14,N#CCNC(=O)C(CCCCF)NC(=O)c1ccccc1 (stereo not drawn),-5.21
15,COc1ccccc1CN1CCSCC1,-2.08
16,CCCCn1c(=N)c(C#N)cc2c(=O)n3cc(C)ccc3nc21,-2.77
17,Cc1ccc(S(=O)(=O)n2ccc(C)n2)cc1,-3.65
18,COc1ccc(OC)c(-c2noc(CSc3nc(N)cc(O)n3)n2)c1,-1.11
19,CC(=O)Nc1ccc(CN2CCN(c3cccc(C(F)(F)F)c3)CC2)cc1,4.73
20,CN1CCCN(Cc2ccc(Cl)cc2Cl)CC1,-3.56
21,CC(C)CCn1c(=O)c2sccc2n2c(CCCC(=O)NC3CC3)nnc12,-1.87
22,O=C1N/C(=C/c2ccc(O)c(Cl)c2)C(=O)N1Cc1ccccc1F,5.42
23,COCCn1ccc2nc(C)c(C(=O)O)cc2c1=O,0.708
24,COc1ccc(S(=O)(=O)Cc2ccc(C(=O)N3CCN(Cc4ccccc4)CC3)o2)cc1,-1.28
